From the GPR68 mutational scans of Howard et al. (2025)
Scores whose standard error is large were omitted. The source holds two more conditions with little spread; they are left out. Read del as a deletion of the residues named and ins as an insertion between two positions. For some of these results: How much ogerin was present is not stated here.

B1: GPR68, Q15743 (parent)
chain: MGNITADNSSMSCTIDHTIHQTLAPVVYVTVLVVGFPANCLSLYFGYLQIKARNELGVYLCNLTVADLFYICSLPFWLQYVLQHDNWSHGDLSCQVCGILLYENIYISVGFLCCISVDRYLAVAHPFRFHQFRTLKAAVGVSVVIWAKELLTSIYFLMHEEVIEDENQHRVCFEHYPIQAWQRAINYYRFLVGFLFPICLLLASYQGILRAVRRSHGTQKSRKDQIQRLVLSTVVIFLACFLPYHVLLLVRSVWEASCDFAKGVFNAYHFSLLLTSFNCVADPVLYCFVSETTHRDLARLRGACLAFLTCSRTGRAREAYPLGAPEASGKSGAQGEEPELLTKLHPAFQTPNSPGSGGFPTGRLA

How the values were obtained:
[1] = variants of: B1; assay: cAMP reporter score (Enrich2 score, wild type = 0); higher = more signal; HEK293T, FACS bins
[2] = variants of: B1; assay: surface expression score (Enrich2 score, wild type = 0); higher = more signal; HEK293T, FACS bins

| Variant | cAMP reporter score ([1]; pH 5.5) | cAMP reporter score ([1]; pH 6) | cAMP reporter score ([1]; pH 6, modulator: ogerin) | cAMP reporter score ([1]; pH 6.5, modulator: ogerin) | surface expression score [2] |
| --- | --- | --- | --- | --- | --- |
| MGNITADNSSMSCTIDHTIHQTLAPVVYVTVLVVGFPANCLSLYFGYLQIKARNELGVYLCNLTVADLFYICSLPFWLQYVLQHDNWSHGDLSCQVCGILLYENIYISVGFLCCISVDRYLAVAHPFRFHQFRTLKAAVGVSVVIWAKELLTSIYFLMHEEVIEDENQHRVCFEHYPIQAWQRAINYYRFLVGFLFPICLLLASYQGILRAVRRSHGTQKSRKDQIQRLVLSTVVIFMACFLPYHVLLLVRSVWEASCDFAKGVFNAYHFSLLLTSFNCVADPVLYCFVSETTHRDLARLRGACLAFLTCSRTGRAREAYPLGAPEASGKSGAQGEEPELLTKLHPAFQTPNSPGSGGFPTGRLA [L238M] | 0.414 | 0.356 | 1.1 | 1.86 | 1.27 |
| MGNITADNSSMSCTIDHTIHQTLAPVVYVTVLVVGFPANCLSLYFGYLQIKARNELGVYLCNLTVADLFYICSLPFWLQYVLQHDNWSHGDLSCQVCGILLYENIYISVGFLCCISVDRYLAVAHPFRFHQFRTLKAAVGVSVVIWAKELLTSIYFLMHEEVIEDENQHRVCFEHYPIQAWQRAINYYRFLVGFLFPICLLLASYQGILRAVRRSHGTQKSRKDQIQRLVLSTVVIFPACFLPYHVLLLVRSVWEASCDFAKGVFNAYHFSLLLTSFNCVADPVLYCFVSETTHRDLARLRGACLAFLTCSRTGRAREAYPLGAPEASGKSGAQGEEPELLTKLHPAFQTPNSPGSGGFPTGRLA [L238P] | -0.643 | -0.431 | -1.09 | -0.671 | -1.01 |
